Experimental data from article PMC10284917.
These are yes or no findings as the source states them, for the method shown. In cells and extracts the contact can be indirect. Some results given as binding are weak or reduced against the parent protein; the word gives no strength. Sequences can lack the tags named with a protein.

Sequences of proteins named here, by UniProt entry; tags and fusion partners are left off.
UniProt Q27J81: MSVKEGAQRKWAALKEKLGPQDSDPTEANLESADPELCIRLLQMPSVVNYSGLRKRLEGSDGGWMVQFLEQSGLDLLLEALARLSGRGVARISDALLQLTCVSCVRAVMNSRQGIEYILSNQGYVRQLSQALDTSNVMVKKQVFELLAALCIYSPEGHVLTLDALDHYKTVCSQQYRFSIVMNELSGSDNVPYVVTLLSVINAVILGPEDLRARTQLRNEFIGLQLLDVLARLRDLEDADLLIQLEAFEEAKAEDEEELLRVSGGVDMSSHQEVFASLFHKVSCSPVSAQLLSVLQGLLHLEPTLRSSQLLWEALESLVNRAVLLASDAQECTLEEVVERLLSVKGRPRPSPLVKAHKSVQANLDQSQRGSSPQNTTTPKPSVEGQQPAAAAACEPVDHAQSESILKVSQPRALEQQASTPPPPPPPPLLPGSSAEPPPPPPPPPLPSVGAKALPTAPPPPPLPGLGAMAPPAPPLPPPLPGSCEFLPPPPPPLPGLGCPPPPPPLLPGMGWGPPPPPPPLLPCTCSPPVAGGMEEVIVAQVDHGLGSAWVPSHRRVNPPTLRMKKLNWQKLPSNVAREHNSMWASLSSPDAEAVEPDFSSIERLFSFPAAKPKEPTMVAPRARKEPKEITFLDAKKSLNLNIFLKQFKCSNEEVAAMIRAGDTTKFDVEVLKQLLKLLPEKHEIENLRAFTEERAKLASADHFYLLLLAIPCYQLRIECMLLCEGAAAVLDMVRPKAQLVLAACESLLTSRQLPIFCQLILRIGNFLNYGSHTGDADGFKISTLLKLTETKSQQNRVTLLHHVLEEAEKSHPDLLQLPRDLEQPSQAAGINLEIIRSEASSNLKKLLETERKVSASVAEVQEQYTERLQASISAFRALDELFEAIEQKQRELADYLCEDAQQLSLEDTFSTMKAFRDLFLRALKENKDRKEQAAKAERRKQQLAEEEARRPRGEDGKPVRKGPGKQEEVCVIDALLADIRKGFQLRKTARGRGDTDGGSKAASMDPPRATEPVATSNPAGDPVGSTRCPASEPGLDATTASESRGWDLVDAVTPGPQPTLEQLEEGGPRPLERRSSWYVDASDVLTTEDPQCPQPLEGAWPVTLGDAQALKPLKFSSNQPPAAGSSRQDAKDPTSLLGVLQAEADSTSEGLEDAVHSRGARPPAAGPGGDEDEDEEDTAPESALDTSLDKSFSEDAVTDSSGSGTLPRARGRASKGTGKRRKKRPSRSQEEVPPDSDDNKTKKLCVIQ

B1: Myc-FBXO7-1-74 aa (domain or fragment, UniProt Q9Y3I1 1-74)
chain: MRLRVRLLKRTWPLEVPETEPTLGHLRSHLRQSLLCTWGYSSNTRFTITLNYKDPLTGDEETLASYGIVSGDLI
B2: Myc-FBXO7-1-169 aa (domain or fragment, UniProt Q9Y3I1 1-169)
chain: MRLRVRLLKRTWPLEVPETEPTLGHLRSHLRQSLLCTWGYSSNTRFTITLNYKDPLTGDEETLASYGIVSGDLICLILQDDIPAPNIPSSTDSEHSSLQNNEQPSLATSSNQTSMQDEQPSDSFQGQAAQSGVWNDDSMLGPSQNFEAESIQDNAHMAEGTGFYPSEPM
B3: Myc-FBXO7-1-381 aa (domain or fragment, UniProt Q9Y3I1 1-381)
chain: MRLRVRLLKRTWPLEVPETEPTLGHLRSHLRQSLLCTWGYSSNTRFTITLNYKDPLTGDEETLASYGIVSGDLICLILQDDIPAPNIPSSTDSEHSSLQNNEQPSLATSSNQTSMQDEQPSDSFQGQAAQSGVWNDDSMLGPSQNFEAESIQDNAHMAEGTGFYPSEPMLCSESVEGQVPHSLETLYQSADCSDANDALIVLIHLLMLESGYIPQGTEAKALSMPEKWKLSGVYKLQYMHPLCEGSSATLTCVPLGNLIVVNATLKINNEIRSVKRLQLLPESFICKEKLGENVANIYKDLQKLSRLFKDQLVYPLLAFTRQALNLPDVFGLVVLPLELKLRIFRLLDVRSVLSLSAVCRDLFTASNDPLLWRFLYLRDFR
B4: FBXO11 (protein, UniProt Q86XK2 1-927)
chain: MNSVRAANRRPRRVSRPRPVQQQQQQPPQQPPPQPPQQQPPQQQPPPPPQQQQQQQPPPPPPPPPPLPQERNNVGERDDDVPADMVAEESGPGAQNSPYQLRRKTLLPKRTACPTKNSMEGASTSTTENFGHRAKRARVSGKSQDLSAAPAEQYLQEKLPDEVVLKIFSYLLEQDLCRAACVCKRFSELANDPILWKRLYMEVFEYTRPMMHPEPGKFYQINPEEYEHPNPWKESFQQLYKGAHVKPGFAEHFYSNPARYKGRENMLYYDTIEDALGGVQEAHFDGLIFVHSGIYTDEWIYIESPITMIGAAPGKVADKVIIENTRDSTFVFMEGSEDAYVGYMTIRFNPDDKSAQHHNAHHCLEITVNCSPIIDHCIIRSTCTVGSAVCVSGQGACPTIKHCNISDCENVGLYITDHAQGIYEDNEISNNALAGIWVKNHGNPIIRRNHIHHGRDVGVFTFDHGMGYFESCNIHRNRIAGFEVKAYANPTVVRCEIHHGQTGGIYVHEKGRGQFIENKIYANNFAGVWITSNSDPTIRGNSIFNGNQGGVYIFGDGRGLIEGNDIYGNALAGIQIRTNSCPIVRHNKIHDGQHGGIYVHEKGQGVIEENEVYSNTLAGVWVTTGSTPVLRRNRIHSGKQVGVYFYDNGHGVLEDNDIYNHMYSGVQIRTGSNPKIRRNKIWGGQNGGILVYNSGLGCIEDNEIFDNAMAGVWIKTDSNPTLRRNKIHDGRDGGICIFNGGRGLLEENDIFRNAQAGVLISTNSHPILRKNRIFDGFAAGIEITNHATATLEGNQIFNNRFGGLFLASGVNVTMKDNKIMNNQDAIEKAVSRGQCLYKISSYTSYPMHDFYRCHTCNTTDRNAICVNCIKKCHQGHDVEFIRHDRFFCDCGAGTLSNPCTLAGEPTHDTDTLYDSAPPIESNTLQHN
B5: FBXO31 (protein, UniProt Q5XUX0 1-539)
chain: MAVCARLCGVGPSRGCRRRQQRRGPAETAAADSEPDTDPEEERIEASAGVGGGLCAGPSPPPPRCSLLELPPELLVEIFASLPGTDLPSLAQVCTKFRRILHTDTIWRRRCREEYGVCENLRKLEITGVSCRDVYAKLLHRYRHILGLWQPDIGPYGGLLNVVVDGLFIIGWMYLPPHDPHVDDPMRFKPLFRIHLMERKAATVECMYGHKGPHHGHIQIVKKDEFSTKCNQTDHHRMSGGRQEEFRTWLREEWGRTLEDIFHEHMQELILMKFIYTSQYDNCLTYRRIYLPPSRPDDLIKPGLFKGTYGSHGLEIVMLSFHGRRARGTKITGDPNIPAGQQTVEIDLRHRIQLPDLENQRNFNELSRIVLEVRERVRQEQQEGGHEAGEGRGRQGPRESQPSPAQPRAEAPSKGPDGTPGEDGGEPGDAVAAAEQPAQCGQGQPFVLPVGVSSRNEDYPRTCRMCFYGTGLIAGHGFTSPERTPGVFILFDEDRFGFVWLELKSFSLYSRVQATFRNADAPSPQAFDEMLKNIQSLTS
B6: Myc-FBXO7-ΔUBL (domain or fragment, UniProt Q9Y3I1 75-522)
chain: CLILQDDIPAPNIPSSTDSEHSSLQNNEQPSLATSSNQTSMQDEQPSDSFQGQAAQSGVWNDDSMLGPSQNFEAESIQDNAHMAEGTGFYPSEPMLCSESVEGQVPHSLETLYQSADCSDANDALIVLIHLLMLESGYIPQGTEAKALSMPEKWKLSGVYKLQYMHPLCEGSSATLTCVPLGNLIVVNATLKINNEIRSVKRLQLLPESFICKEKLGENVANIYKDLQKLSRLFKDQLVYPLLAFTRQALNLPDVFGLVVLPLELKLRIFRLLDVRSVLSLSAVCRDLFTASNDPLLWRFLYLRDFRDNTVRVQDTDWKELYRKRHIQRKESPKGRFVMLLPSSTHTIPFYPNPLHPRPFPSSRLPPGIIGGEYDQRPTLPYVGDPISSLIPGPGETPSQFPPLRPRFDPVGPLPGPNPILPGRGGPNDRFPFRPSRGRPTDGRLSFM

biological target: FLAG-INF2 (INF2-CAXX, ER-localized inverted formin 2) (UniProt Q27J81); test: co-IP; anti-FLAG M2 agarose beads, lysates (RIPA (Low) Lysis Buffer) of HEK-293T cells transfected with both constructs, 20 μM MG132 for 8 h before harvesting; 4 h at 4 °C; washed with BC100 buffer (20 mM Tris-Cl pH 7.9, 100 mM NaCl, 0.2 mM EDTA, 20% glycerol) with 0.2% Triton X-100; eluted with FLAG peptide; western blotting

Binder | binding
B1 | binds
B2 | binds
B3 | binds
B4 | no binding
B5 | no binding
B6 | no binding
